# Assay results from PubChem BioAssay AID504832 (National Center for Advancing Translational Sciences (NCATS), 2011).
# Out of some 310,000 compounds screened, about 18,000 (5.8%) were called active. Inconclusive means that the source gave no clear call. Such entries were picked first, then a sample of the others. Calls come from the whole dose curve; as a rule, active = well fitted inhibition curve with a large enough effect; inconclusive = small, poorly fitted or top-dose-only effect, or another doubt; inactive = no such curve, though single readings can be large or run the other way. Potencies of inconclusive entries are left out as doubtful fits.
# Experiment: Primary qHTS for delayed death inhibitors of the malarial parasite plastid, 48 hour incubation
# Settings: P. falciparum luciferase growth in erythrocytes; series mostly up to 28.7 µM
# Outline: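 First compound was added to culture medium, then infected red cells at 0.1% parasitemia and 2% hematocrit (final). After incubation at 37 C under 5% CO2, luciferase detection reagent was dispensed and light output recorded.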
# Potency is the fitted concentration of half-maximal effect; tags give direction and shape of the fitted curve.
row,Structure (SMILES),Potency
1,Oc1ccc(N2CCN(c3ccnc4cc(Cl)ccc34)CC2)cc1,active: 3.29 µM
2,COc1cccc(C(=O)Nc2ccc(C(F)(F)F)n(C)c2=O)c1,inactive
3,CN(C)CCCNc1ncnc2oc(-c3ccccc3)c(-c3ccccc3)c12,active: 16.5 µM
4,CCCN1C2CCCC1CC(NC(=O)c1ccc(Br)cc1)C2 (stereo not drawn),"inconclusive [inhibitor, partial curve]"
5,Brc1csc(/C=N/Nc2nc3ccccc3s2)c1,inactive
6,CC1CCC(=C(C#N)C(=O)Nc2cccc(Cl)c2)CC1 (stereo not drawn),"inconclusive [inhibitor, single point]"
7,Cc1cc(/C=C(\C#N)C(=O)Nc2ccccc2F)c(C)[nH]1,inactive
8,Cc1nn(Cc2nnc(SCC(=O)Nc3cccc(C(F)(F)F)c3)n2C)c(C)c1[N+](=O)[O-],"inconclusive [inhibitor, partial curve]"
9,CCOC(=O)c1cc(CC)sc1NC(=O)c1ccc([N+](=O)[O-])c(N2CCOCC2)c1,inactive
10,O=C(NC1CCN(S(=O)(=O)c2ccccc2)CC1)C1CCCCC1,inactive
11,COCCn1c(SCC(=O)N2CCC(C)CC2)nc2ccccc2c1=O,inactive
12,CCc1ccc(CNC(=O)c2nn(C)c3c2CS(=O)(=O)c2ccccc2-3)cc1,"inconclusive [inhibitor, single point]"
13,COc1ccc(N2CCN(c3nc4c(c(=O)n(C)c(=O)n4C)n3Cc3ccccc3)CC2)cc1,"inconclusive [inhibitor, partial curve]"
14,Cc1cc(C(=O)CSc2nnc(N)s2)c(C)n1C1CC1,inactive
15,CC(C)c1nnc(NC(=O)CSc2nc3ccccc3s2)s1,inactive
16,Cc1cc(C(=O)OC(C(=O)Nc2cccc(C(F)(F)F)c2)c2ccccc2)c(C)o1 (stereo not drawn),active: 9.28 µM
17,O=c1c2cnn(-c3ccccc3)c2nc(-c2ccco2)n1-c1ccccc1,active: 10.4 µM
18,COC(=O)C1=C(c2cccc(Cl)c2)C[C@@H]2CC[C@H]1N2C(=O)N1CCCC1,"inconclusive [inhibitor, single point]"
19,Cc1ccc(-c2c(C#N)c(N)nc3c2CCCC3)o1,active: 10.4 µM
20,COc1ccc(CC(=O)NC(c2ccccc2)c2ccc(C)cc2)c(OC)c1 (stereo not drawn),active: 10.4 µM
21,CN1C(=O)/C(=C/c2cccc(Cl)c2)Sc2ccc(C(=O)NCc3cccnc3)cc21,active: 9.28 µM
22,O=C(CN1C(=O)C2C3C=CC(C4CC34)C2C1=O)OCC(=O)c1ccccc1 (stereo not drawn),inactive
23,COc1ccc(OCc2cc(C(=O)N3CCN(CC(=O)N(C)C)CC3)no2)c(Cl)c1,inactive
